The supplement of paper PMC4466236
Over roughly 33,000 sequences, “E-score (dimensionless, -0.5 to 0.5)” has its median near -0.058; the highest 2% begin near 0.35. Some of the results follow.

system: MvaT; assay: PBM 8-mer E-score (mean of HK and ME arrays) (E-score (dimensionless, -0.5 to 0.5)); higher = stronger relative binding preference; most listed sequences are background and not binding sites
Method in brief: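 Full-length P. aeruginosa MvaT carrying an N-terminal glutathione S-transferase tag was tested by protein binding microarray following a previously described protocol. Two universal double-stranded 60-mer arrays, ME and HK, were used, each with a constant 25-mer primer region and a variable 35-mer region covering all 8-mers. The rank-based E-score is the mean of the two arrays, parsed with a custom script. Its range runs from -0.5 to 0.5 for each 8-mer.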

Sequence	PBM 8-mer E-score
CCTATAGA	-0.0441
CCCCGAAG	-0.273
CGTATATA	0.378
CTCACAAG	-0.132
GAGATCAA	-0.118
ATCGATGA	-0.126
CCTCTCCC	-0.212
AGAGTTCG	0.00443
GTGACGTA	-0.1
AGTTCCAG	0.0982
CGTAAGGA	-0.152
CAGGCCTA	-0.194
CCTCAGAA	-0.0368
CACTGATA	0.122
ACCTACGA	-0.0935
CCAGTCGC	-0.0501
AGTGCCGC	-0.158
CGCCCCGA	-0.241
AGGTTAAG	-0.115
CCCCAACA	-0.0459
CCTGAAGG	-0.367
GCACAAAC	0.0194
GATGGGAA	0.0299
CATCGATC	0.00867
CAGACGCA	-0.0153

Sequence	PBM 8-mer E-score
CGGTAACG	-0.127
GGCGAGCC	-0.343
CGGCCTAA	-0.0439
CTAGCGAA	-0.0376
AGATGAAA	0.0218
GATGGGCA	-0.124
GGTTCCTA	0.0149
ACAAGAGG	0.00448
CAAGTCAA	-0.0111
ACAGTCCA	-0.146
TAATGCTA	0.15
GTGGCTCA	-0.12
CAACCATG	0.0287
AGCTTGAG	-0.246
CCGCGGCA	-0.0718
CGCTTCCC	-0.256
TAGTAGCA	0.118
AAAATCTG	0.136
AAAGCACC	-0.0969
ATCTGTGA	-0.0144
CGTATGAG	-0.155
ATCTCCAG	-0.00587
GGCATGCC	-0.332
CTCATGCA	-0.224
TTATTAAA	0.409

Sequence	PBM 8-mer E-score
CATGCTGC	-0.164
CTGATAGA	0.0644
ATTTTCTC	0.149
AGTAGCCA	-0.2
AGATTCGA	0.0693
AAAGACCT	-0.0613
GATTGATA	0.171
CTCAAGTC	-0.11
AACGGGGC	0.0256
CCCTTATA	0.138
AAGGAAAG	-0.202
CGTAGTCC	-0.179
AAGGTGCA	-0.222
CTTGTGAA	0.132
AACGTCAA	0.152
AATATGGT	0.271
ATAGGACC	-0.0799
AAACGCCA	-0.0208
ATCGGGCA	0.0419
TCAAACCA	0.0221
ACCAGCAG	-0.232
CACTCTAC	0.0171
CGGTGGTC	-0.24
AGCCAGGA	-0.196
ACATTCAT	0.0623

Sequence	PBM 8-mer E-score
GTATTAGA	0.267
GCGGAGCC	-0.277
GGCTCACC	-0.247
TGCAACAA	0.201
ATACCACC	0.102
CATGCTAG	-0.123
CATATGTC	0.121
ATAAGATG	0.0857
AATTCAAG	0.0404
ACTTGGGA	0.143
GCTCAAAA	0.0525
CTCTATCC	-0.0794
CTTGCTCC	-0.0951
GTCGACTA	0.0337
GGTTCTAC	-0.17
CGGTGTGA	-0.0771
GAATGCGC	-0.149
ATGACTAA	0.208
CCTGGGGA	-0.214
CAAGAGCG	-0.109
ACCGATGC	-0.306
GTAGACAC	-0.0921
AATGTGGA	0.122
CATTCAGG	-0.0753
CATAGGGC	-0.137

Sequence	PBM 8-mer E-score
GACGGGTA	0.0024
ACAGGCAA	0.0171
GTGAAGCA	-0.134
GCCAAAGA	-0.154
AGAGCGGC	-0.266
ATATGATC	0.283
ATTGCCAA	0.105
CATGAGAA	-0.0314
CCTGGGTA	-0.145
CTTCCGTC	-0.0303
AGCCCCAT	-0.183
CCATGGGA	-0.39
CCGGGGCA	-0.218
CCATTCAC	-0.0068
AAAACCCT	-0.199
ACTCGGCG	-0.0863
CTTGCTAA	0.0366
CGTTTACA	-0.0355
CCATCTAG	-0.101
GCTGCTAC	-0.18
GATACTGA	-0.0332
CCCATTAC	-0.0724
GGGCCGAC	-0.267
CCACCAAA	0.0699
ACCGTATG	-0.147

Sequence	PBM 8-mer E-score
ACCAAGAT	0.0847
AGTGAAGG	-0.288
CAGGTAAA	0.0497
GGTTGACA	-0.0531
ACATAACT	0.268
CACACCGA	-0.119
ACAGGGAT	-0.111
ATCGAAGC	-0.0708
CATGCGAG	-0.203
GCTGAGCC	-0.287
AGCTTCAG	-0.266
AAGAAAGG	0.0684
AGAAAATG	0.201
CAGGGACC	-0.216
CGTCGTTC	-0.0551
ACCAACCA	-0.0431
GATCAGCC	-0.302
TGCAATAA	0.234
CCGTTAAG	0.0915
CGGATTGA	-0.0499
AACGTGAC	-0.0917
CGGTAGAA	0.0777
ATTGACGG	0.011
AGCGGATC	-0.069
AGTTTGGG	0.143

Sequence	PBM 8-mer E-score
AATCAGTG	0.0916
AATGATGC	-0.0782
AGCAAAAC	0.079
GAGGTACC	-0.3
AAGTGGTC	-0.137
CTGCCATC	-0.179
AGAAGTAA	0.253
ATTCTGTA	0.0768
CGACACCC	-0.217
ACCCGCTA	-0.0171
CGCATCTA	-0.0164
CATGTCCC	-0.227
AAATTATG	0.233
TACGAGGA	-0.05
AATACTTA	0.344
CCGCAGTA	-0.149
ACATTAGT	0.279
GTAAGCAA	0.0445
CTGACATC	-0.0215
ATTTCAGC	0.0672
CTTTTGGC	-0.0767
AATGCAAC	0.0933
